# Experimental data reported in the supplement of paper PMC8728848.
# The list shows a part of the results.
# Legend:
# Assay in all cases: glycan array binding signal (z-score within array); higher = stronger binding
# Conditions in all cases: glycan notation: IUPAC condensed, linker removed; mutation: E227G
# [1] = biological target: GlcNAc(a1-6)Gal(b1-4)GlcNAc
# Summary of the method: (§1)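 Negative Z-scores can be read as non-binding. The Z-score is calculated within each array and then averaged across arrays of one protein sequence at different concentrations or buffers and across linkers. Arrays, 3228 in all, were curated from the Consortium for Functional Glycomics database and kept only where the protein sequence was available.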
# [2] = biological target: GlcNAc(b1-2)Gal(b1-3)GalNAc
# Summary of the method: as §1
# [3] = biological target: GlcNAc(b1-2)Man(a1-3)[GlcNAc(b1-2)Man(a1-6)]Man(b1-4)GlcNAc(b1-4)GlcNAc
# Summary of the method: as §1
# [4] = biological target: GlcNAc(b1-2)Man(a1-3)[GlcNAc(b1-2)Man(a1-6)]Man(b1-4)GlcNAc(b1-4)[Fuc(a1-6)]GlcNAc
# Summary of the method: as §1
# [5] = biological target: GlcNAc(b1-2)Man(a1-3)[GlcNAc(b1-4)][GlcNAc(b1-2)Man(a1-6)]Man(b1-4)GlcNAc(b1-4)GlcNAc
# Summary of the method: as §1
# [6] = biological target: GlcNAc(b1-2)Man(a1-3)[GlcNAc(b1-4)][GlcNAc(b1-2)Man(a1-6)]Man(b1-4)GlcNAc(b1-4)[Fuc(a1-6)]GlcNAc
# Summary of the method: as §1
# [7] = biological target: GlcNAc(b1-2)[GlcNAc(b1-4)]Man(a1-3)[GlcNAc(b1-2)Man(a1-6)]Man(b1-4)GlcNAc(b1-4)GlcNAc
# Summary of the method: as §1
# [8] = biological target: GlcNAc(b1-2)[GlcNAc(b1-4)]Man(a1-3)[GlcNAc(b1-4)][GlcNAc(b1-2)Man(a1-6)]Man(b1-4)GlcNAc(b1-4)GlcNAc
# Summary of the method: as §1
# [9] = biological target: GlcNAc(b1-2)[GlcNAc(b1-4)]Man(a1-3)[GlcNAc(b1-4)][GlcNAc(b1-2)[GlcNAc(b1-6)]Man(a1-6)]Man(b1-4)GlcNAc(b1-4)GlcNAc
# Summary of the method: as §1
# [10] = biological target: GlcNAc(b1-2)[GlcNAc(b1-4)]Man(a1-3)[GlcNAc(b1-4)][GlcNAc(b1-2)[GlcNAc(b1-6)]Man(a1-6)]Man(b1-4)GlcNAc(b1-4)[Fuc(a1-6)]GlcNAc
# Summary of the method: as §1
# [11] = biological target: GlcNAc(b1-2)[GlcNAc(b1-6)]Man(a1-6)[GlcNAc(b1-2)Man(a1-3)]Man(b1-4)GlcNAc(b1-4)GlcNAc
# Summary of the method: as §1
# [12] = biological target: GlcNAc(b1-2)[GlcNAc(b1-6)]Man(a1-6)[GlcNAc(b1-2)Man(a1-3)]Man(b1-4)GlcNAc(b1-4)[Fuc(a1-6)]GlcNAc
# Summary of the method: as §1
# [13] = biological target: GlcNAc(b1-2)[GlcNAc(b1-6)]Man(a1-6)[GlcNAc(b1-4)][GlcNAc(b1-2)Man(a1-3)]Man(b1-4)GlcNAc(b1-4)GlcNAc
# Summary of the method: as §1
# [14] = biological target: GlcNAc(b1-3)Fuc
# Summary of the method: as §1
# [15] = biological target: GlcNAc(b1-3)Gal
# Summary of the method: as §1
# [16] = biological target: GlcNAc(b1-3)Gal(b1-3)GalNAc
# Summary of the method: as §1
# [17] = biological target: GlcNAc(b1-3)Gal(b1-4)Glc
# Summary of the method: as §1
# [18] = biological target: GlcNAc(b1-3)Gal(b1-4)GlcNAc
# Summary of the method: as §1
# [19] = biological target: GlcNAc(b1-3)Gal(b1-4)GlcNAc(b1-2)Man(a1-3)[GlcNAc(b1-3)Gal(b1-4)GlcNAc(b1-2)Man(a1-6)]Man(b1-4)GlcNAc(b1-4)GlcNAc
# Summary of the method: as §1
# [20] = biological target: GlcNAc(b1-3)Gal(b1-4)GlcNAc(b1-2)Man(a1-3)[GlcNAc(b1-3)Gal(b1-4)GlcNAc(b1-2)Man(a1-6)]Man(b1-4)GlcNAc(b1-4)[Fuc(a1-6)]GlcNAc
# Summary of the method: as §1
# [21] = biological target: GlcNAc(b1-3)Gal(b1-4)GlcNAc(b1-2)[GlcNAc(b1-3)Gal(b1-4)GlcNAc(b1-6)]Man(a1-6)[GlcNAc(b1-3)Gal(b1-4)GlcNAc(b1-2)Man(a1-3)]Man(b1-4)GlcNAc(b1-4)GlcNAc
# Summary of the method: as §1
# [22] = biological target: GlcNAc(b1-3)Gal(b1-4)GlcNAc(b1-3)Gal(b1-4)GlcNAc
# Summary of the method: as §1
# [23] = biological target: GlcNAc(b1-3)Gal(b1-4)GlcNAc(b1-3)Gal(b1-4)GlcNAc(b1-2)Man(a1-3)[GlcNAc(b1-3)Gal(b1-4)GlcNAc(b1-3)Gal(b1-4)GlcNAc(b1-2)Man(a1-6)]Man(b1-4)GlcNAc(b1-4)GlcNAc
# Summary of the method: as §1
# [24] = biological target: GlcNAc(b1-3)Gal(b1-4)GlcNAc(b1-3)Gal(b1-4)GlcNAc(b1-2)Man(a1-3)[GlcNAc(b1-3)Gal(b1-4)GlcNAc(b1-3)Gal(b1-4)GlcNAc(b1-2)Man(a1-6)]Man(b1-4)GlcNAc(b1-4)[Fuc(a1-6)]GlcNAc
# Summary of the method: as §1
# [25] = biological target: GlcNAc(b1-3)Gal(b1-4)GlcNAc(b1-3)Gal(b1-4)GlcNAc(b1-2)[GlcNAc(b1-3)Gal(b1-4)GlcNAc(b1-3)Gal(b1-4)GlcNAc(b1-6)]Man(a1-6)[GlcNAc(b1-3)Gal(b1-4)GlcNAc(b1-3)Gal(b1-4)GlcNAc(b1-2)Man(a1-3)]Man(b1-4)GlcNAc(b1-4)[Fuc(a1-6)]GlcNAc
# Summary of the method: as §1
# [26] = biological target: GlcNAc(b1-3)Gal(b1-4)GlcNAc(b1-3)Gal(b1-4)GlcNAc(b1-3)Gal(b1-4)GlcNAc(b1-2)Man(a1-3)[GlcNAc(b1-3)Gal(b1-4)GlcNAc(b1-3)Gal(b1-4)GlcNAc(b1-3)Gal(b1-4)GlcNAc(b1-2)Man(a1-6)]Man(b1-4)GlcNAc(b1-4)GlcNAc
# Summary of the method: as §1
# [27] = biological target: GlcNAc(b1-3)Gal(b1-4)GlcNAc(b1-3)Gal(b1-4)GlcNAc(b1-3)Gal(b1-4)GlcNAc(b1-2)Man(a1-3)[GlcNAc(b1-3)Gal(b1-4)GlcNAc(b1-3)Gal(b1-4)GlcNAc(b1-3)Gal(b1-4)GlcNAc(b1-2)Man(a1-6)]Man(b1-4)GlcNAc(b1-4)[Fuc(a1-6)]GlcNAc
# Summary of the method: as §1
# [28] = biological target: GlcNAc(b1-3)Gal(b1-4)GlcNAc(b1-3)Gal(b1-4)GlcNAc(b1-3)Gal(b1-4)GlcNAc(b1-2)[GlcNAc(b1-3)Gal(b1-4)GlcNAc(b1-3)Gal(b1-4)GlcNAc(b1-3)Gal(b1-4)GlcNAc(b1-6)]Man(a1-6)[GlcNAc(b1-3)Gal(b1-4)GlcNAc(b1-3)Gal(b1-4)GlcNAc(b1-3)Gal(b1-4)GlcNAc(b1-2)Man(a1-3)]Man(b1-4)GlcNAc(b1-4)[Fuc(a1-6)]GlcNAc
# Summary of the method: as §1
# [29] = biological target: GlcNAc(b1-3)Gal(b1-4)GlcNAc(b1-3)Gal(b1-4)GlcNAc(b1-3)Gal(b1-4)GlcNAc(b1-3)Gal(b1-4)GlcNAc(b1-2)Man(a1-3)[GlcNAc(b1-3)Gal(b1-4)GlcNAc(b1-3)Gal(b1-4)GlcNAc(b1-3)Gal(b1-4)GlcNAc(b1-3)Gal(b1-4)GlcNAc(b1-2)Man(a1-6)]Man(b1-4)GlcNAc(b1-4)GlcNAc
# Summary of the method: as §1
# [30] = biological target: GlcNAc(b1-3)Gal(b1-4)GlcNAc(b1-3)Gal(b1-4)GlcNAc(b1-3)Gal(b1-4)GlcNAc(b1-3)Gal(b1-4)GlcNAc(b1-2)Man(a1-3)[GlcNAc(b1-3)Gal(b1-4)GlcNAc(b1-3)Gal(b1-4)GlcNAc(b1-3)Gal(b1-4)GlcNAc(b1-3)Gal(b1-4)GlcNAc(b1-2)Man(a1-6)]Man(b1-4)GlcNAc(b1-4)[Fuc(a1-6)]GlcNAc
# Summary of the method: as §1
binder,measurement,setting,value
"Epa1-NP-mutant-E227G (Candida glabrata), Q6VBJ0 (protein) MILNPALFLNKCVCIYTTLILLLLTNGGYATSSNDISLASKDPTTFPLGCSPDITTPKKGLSMELYSYDFRKKGSYPCWDAAYLDPNYPRTGYKSHRLLAKVDGVTGNINFYYHATKGCTPQLGHLPASYNYPKPLTMTNFTMLLYGYFRPKVTGFHTFTISADDLLFVNFGAGNAFDCCRRDSSADHFGNYQAYAIWGSKTAKDELTVHLDAGVYYPIRLFYNNRGYDGALSFTFKTESNENTVSDFSEYFFSLDDTEEGCPGLISYDSSCASVKTSKIIGIDYHTETPNENLVPITKTIYHLGIPCTGTTTTPLCGSGFYDPLANKCVTINTSSTSSVTKTTSHTTSKEVSFHSSISSQKTLIPKSIPSPYGPIKSQSIPTEMETSSEISSSEYAFSDVISTPSHSPYTKKHSSLNSSSYTSTVIHSLTSYSISQGIFSTSLSEQNITSKSSTDKFSTATSMSNNITQSSIIISQFSTNNENYTTTSMHTSSDKISTETLNNSISTTTSILFSNSSTILKNNTTIISSDKDTHYHPVNPTIVCSTNKTEIICASITQPSISNSNNHWSSSVLKFNSTTVRSTLPSSAGSNETSINVPFSSSTESNTSTSSTSTSNSKMVRSTLPSSAGSNETSISVPFSSSTESNTSTSSTSTSNSKMVRSTLPSSAGSNETSINVPFSSSTESNTSTSSTSTSNSKTVRSTPFSSAGIIMTSLSQRNNKSASSYASSNSKCYNTADSCRKVHSTPSYLLTSSYTSEGVDYDCSLVSTKLKINDTNCVNNKHTTKSCLKTSVTTTIPTLEIKTARKSSSNTIGLHSYPTSSPNKSISSAPIIGYISSFKTIKTASPSYQTSDLTTITTITSLNNPGSTAVENTHESNDKSRKTSSNDISSKHSVIKETKDAVESSNKSHQTNTLKCSSIIIASSSHNSYESLGGTTLTLTLSKVYSPQNNDTLPFLEISEVNPSRTVLPESSKMMQYLTSTEERNKTARNTIATNIVSISTFHFEGEGNAIRMGYTQLLLMLIGIIVMNIGT",glycan array binding signal (z-score),[1],0.703
same,glycan array binding signal (z-score),[2],-0.312
same,glycan array binding signal (z-score),[3],-0.135
same,glycan array binding signal (z-score),[4],-0.037
same,glycan array binding signal (z-score),[5],-0.376
same,glycan array binding signal (z-score),[6],-0.217
same,glycan array binding signal (z-score),[7],-0.149
same,glycan array binding signal (z-score),[8],-0.114
same,glycan array binding signal (z-score),[9],0.01
same,glycan array binding signal (z-score),[10],-0.15
same,glycan array binding signal (z-score),[11],-0.302
same,glycan array binding signal (z-score),[12],0.01
same,glycan array binding signal (z-score),[13],-0.182
same,glycan array binding signal (z-score),[14],-0.132
same,glycan array binding signal (z-score),[15],-0.233
same,glycan array binding signal (z-score),[16],-0.088
same,glycan array binding signal (z-score),[17],-0.256
same,glycan array binding signal (z-score),[18],-0.122
same,glycan array binding signal (z-score),[19],-0.121
same,glycan array binding signal (z-score),[20],0.074
same,glycan array binding signal (z-score),[21],-0.046
same,glycan array binding signal (z-score),[22],-0.21
same,glycan array binding signal (z-score),[23],-0.058
same,glycan array binding signal (z-score),[24],0.132
same,glycan array binding signal (z-score),[25],0.082
same,glycan array binding signal (z-score),[26],-0.169
same,glycan array binding signal (z-score),[27],-0.161
same,glycan array binding signal (z-score),[28],-0.022
same,glycan array binding signal (z-score),[29],-0.029
same,glycan array binding signal (z-score),[30],0.094
